From the supplement of paper PMC12350171
Synthetic gut communities (20 or 21 species) grown anaerobically with drug for 24 h at the dose given, then challenged with the named pathogen. Pathogen growth (luminescence, or colony counts for V. cholerae) or community OD578 as fold of untreated communities, mean of three; above 1 = more growth. No active / inactive call.

Legend:
[1] = system: Salmonella enterica Typhimurium in Com20; test: S. Typhimurium luminescence in drug-pretreated Com20 relative to untreated Com20 (fold of untreated control); higher = more pathogen expansion
[2] = system: Salmonella enterica Typhimurium (community: Com21 (Com20 + E. coli ED1a)); test: pathogen growth (luminescence or CFU) in drug-pretreated community relative to untreated community (fold of untreated control); higher = more pathogen expansion
[3] = drug pretreatment concentration 10 µM
[4] = drug pretreatment concentration 20 µM
[5] = drug pretreatment concentration 40 µM
[6] = drug pretreatment concentration 80 µM
[7] = drug pretreatment concentration 160 µM
[8] = drug pretreatment concentration 2.5 µM
[9] = drug pretreatment concentration 5 µM

In the case of `C[C@H]1O[C@H](O[C@H]2[C@H](O)[C@@H](O)[C@@H](O[C@H]3[C@H](O)[C@@H](O)C(O)O[C@@H]3CO)O[C@@H]2CO)[C@H](O)[C@@H](O)[C@@H]1N[C@H]1C=C(CO)[C@@H](O)[C@H](O)[C@H]1O` (stereo not given in full) [Acarbose], the “S. Typhimurium luminescence” value [1, 3] is reported as 1.91, the “S. Typhimurium luminescence” value [1, 4] is reported as 1.61 and the “S. Typhimurium luminescence” value [1, 5] is reported as 1.86. The “S. Typhimurium luminescence” value [1, 6] was 1.82, the “S. Typhimurium luminescence” value [1, 7] was 2 and the pathogen growth [2, 3] was 2.54. The pathogen growth [2, 4] was 2.37, the pathogen growth [2, 5] was 2.46 and the pathogen growth [2, 6] was 3.06. It also gave a pathogen growth [2, 7] of 2.33.
With `CN(C)CCCN1c2ccccc2Sc2ccc(Cl)cc21` [Chlorpromazine] the “S. Typhimurium luminescence” value [1, 3] was 1.72, the “S. Typhimurium luminescence” value [1, 4] was 1.45 and the “S. Typhimurium luminescence” value [1, 5] was 1.38. For the same compound, the “S. Typhimurium luminescence” value [1, 6] was 1.82, the “S. Typhimurium luminescence” value [1, 7] was 3.86 and the pathogen growth [2, 3] was 1.42. The pathogen growth [2, 4] was 1.1, the pathogen growth [2, 5] was 1.28 and the pathogen growth [2, 6] was 3. The pathogen growth [2, 7] was 7.74.
For `CN(C)CC/C=C1/c2ccccc2Sc2ccc(Cl)cc21` [Chlorprothixene], the “S. Typhimurium luminescence” value [1, 3] was 1.31, the “S. Typhimurium luminescence” value [1, 4] was 1.1 and the “S. Typhimurium luminescence” value [1, 5] was 1.31. The “S. Typhimurium luminescence” value [1, 6] was 1.91, the “S. Typhimurium luminescence” value [1, 7] was 2.21 and the pathogen growth [2, 3] was 1.37. It also gave a pathogen growth [2, 4] of 1.27, a pathogen growth [2, 5] of 1.07 and a pathogen growth [2, 6] of 1.84. It also gave a pathogen growth [2, 7] of 6.34.
For `Clc1ccc(Cn2c(CN3CCCC3)nc3ccccc32)cc1` [Clemizole], the “S. Typhimurium luminescence” value [1, 3] was 1.57, the “S. Typhimurium luminescence” value [1, 4] was 1.25 and the “S. Typhimurium luminescence” value [1, 5] was 1.21. For the same compound, the “S. Typhimurium luminescence” value [1, 6] was 1.14, the “S. Typhimurium luminescence” value [1, 7] was 1.32 and the pathogen growth [2, 3] was 1.36. It also gave a pathogen growth [2, 4] of 1.33, a pathogen growth [2, 5] of 1.33 and a pathogen growth [2, 6] of 1.56. It also gave a pathogen growth [2, 7] of 2.14.
In the case of `CC(=O)Oc1cccc2c1C(=O)c1c(OC(C)=O)cc(C(=O)O)cc1C2=O` [Diacerein], the “S. Typhimurium luminescence” value [1, 3] is reported as 1.02, the “S. Typhimurium luminescence” value [1, 4] is reported as 0.726 and the “S. Typhimurium luminescence” value [1, 5] is reported as 0.254. For the same compound, the “S. Typhimurium luminescence” value [1, 6] was 1.34, the “S. Typhimurium luminescence” value [1, 7] was 6.23 and the pathogen growth [2, 3] was 0.856. The pathogen growth [2, 4] was 1.53, the pathogen growth [2, 5] was 1.87 and the pathogen growth [2, 6] was 5.83. The pathogen growth [2, 7] was 6.02.
In the case of `O=c1oc2ccccc2c(O)c1Cc1c(O)c2ccccc2oc1=O` [Dicumarol], the “S. Typhimurium luminescence” value [1, 8] is reported as 1.19, the “S. Typhimurium luminescence” value [1, 9] is reported as 1.06 and the “S. Typhimurium luminescence” value [1, 3] is reported as 1.17. The “S. Typhimurium luminescence” value [1, 4] was 1.01, the “S. Typhimurium luminescence” value [1, 5] was 1.26 and the pathogen growth [2, 8] was 1.38. It also gave a pathogen growth [2, 9] of 1.16, a pathogen growth [2, 3] of 0.985 and a pathogen growth [2, 4] of 1.08. For the same compound, the pathogen growth [2, 5] was 1.32.
In the case of `C/C=C(/C(=C/C)c1ccc(O)cc1)c1ccc(O)cc1` [Dienestrol], the “S. Typhimurium luminescence” value [1, 8] is reported as 1.44, the “S. Typhimurium luminescence” value [1, 9] is reported as 0.925 and the “S. Typhimurium luminescence” value [1, 3] is reported as 1.07. For the same compound, the “S. Typhimurium luminescence” value [1, 4] was 1.17, the “S. Typhimurium luminescence” value [1, 5] was 1.94 and the pathogen growth [2, 8] was 1.1. For the same compound, the pathogen growth [2, 9] was 0.881, the pathogen growth [2, 3] was 0.839 and the pathogen growth [2, 4] was 1.27. It also gave a pathogen growth [2, 5] of 2.77.
In the case of `C[C@]12CCC3=C4CCC(=O)C=C4CC[C@H]3[C@@H]1CC[C@@]2(O)CC#N` [Dienogest], the “S. Typhimurium luminescence” value [1, 9] is reported as 1.19, the “S. Typhimurium luminescence” value [1, 3] is reported as 1.1 and the “S. Typhimurium luminescence” value [1, 4] is reported as 1.04. The “S. Typhimurium luminescence” value [1, 5] was 1.08, the “S. Typhimurium luminescence” value [1, 6] was 1.34 and the pathogen growth [2, 9] was 0.993. The pathogen growth [2, 3] was 0.943, the pathogen growth [2, 4] was 0.942 and the pathogen growth [2, 5] was 0.946. For the same compound, the pathogen growth [2, 6] was 1.21.
For `C#C[C@]1(O)CC[C@H]2[C@@H]3CCc4cc(O)ccc4[C@H]3CC[C@@]21C` [Ethinylestradiol], the “S. Typhimurium luminescence” value [1, 9] was 1.21, the “S. Typhimurium luminescence” value [1, 3] was 1.08 and the “S. Typhimurium luminescence” value [1, 4] was 0.922. For the same compound, the “S. Typhimurium luminescence” value [1, 5] was 1.05, the “S. Typhimurium luminescence” value [1, 6] was 2.2 and the pathogen growth [2, 9] was 1.11. It also gave a pathogen growth [2, 3] of 1.05, a pathogen growth [2, 4] of 1.11 and a pathogen growth [2, 5] of 1.07. For the same compound, the pathogen growth [2, 6] was 1.52.
